Test results as given in the antibiotic and cytotoxicity screens of Wong et al. (2023).
Some of the results follow.

Columns and labels:
HSkMC = human skeletal muscle cells; assay: cytotoxicity call (relative viability < 0.9); details: 10 µM
HepG2 = assay: cytotoxicity call (relative viability < 0.9); details: 10 µM
S. aureus RN4220 = assay: growth inhibition call (relative growth <= 0.2); details: 50 µM

| Compound | cytotoxicity call (HSkMC) | cytotoxicity call (HepG2) | growth inhibition call (S. aureus RN4220) |
| --- | --- | --- | --- |
| O=C(C[C@H]1CC[C@H]2[C@@H](COC[C@H](O)CN2C(=O)Nc2cccc(F)c2)O1)NCCCN1CCOCC1 | inactive | inactive | inactive |
| C[C@@H]1CCCCO[C@H](CN(C)Cc2ccc(Cl)c(Cl)c2)[C@H](C)CN([C@@H](C)CO)C(=O)c2cc(NC(=O)c3ccccc3)ccc2O1 | inactive | inactive | inactive |
| Cc1ccc(S(=O)(=O)Nc2ccc3c(c2)C(=O)N([C@@H](C)CO)C[C@H](C)[C@H](CN(C)C(=O)C2CCCCC2)OCCCC[C@H](C)O3)cc1 | inactive | inactive | inactive |
| O=C(C[C@@H]1C[C@H]2c3cc(NS(=O)(=O)c4ccc(F)cc4)ccc3O[C@H]2[C@@H](CO)O1)N1CCOCC1 | inactive | inactive | inactive |
| C[C@H](CO)N1C[C@H](C)[C@H](CN(C)Cc2ccc3c(c2)OCO3)OCCCC[C@H](C)Oc2ccc(NC(=O)Cc3ccccc3)cc2C1=O | inactive | inactive | inactive |
| C[C@H]1CN([C@@H](C)CO)C(=O)c2cccc(NC(=O)Nc3ccc(C(F)(F)F)cc3)c2O[C@@H]1CN(C)C(=O)Nc1cccc2ccccc12 | active | active | inactive |
| Cc1cc(C)n([C@@H](C)CN)n1 | inactive | inactive | inactive |
| CS(=O)(=O)c1ccc(O)c(C(=O)O)c1 | inactive | inactive | inactive |
| COc1ccc(S(=O)(=O)N(C)C[C@@H]2Oc3ccc(NC(=O)C4CC4)cc3C(=O)N([C@@H](C)CO)C[C@@H]2C)cc1 | inactive | inactive | inactive |
| COc1ccc(CN(C)C[C@H]2Oc3ccc(NC(=O)Nc4cccc5ccccc45)cc3C(=O)N([C@H](C)CO)C[C@@H]2C)cc1 | inactive | inactive | inactive |
| Cc1ccc(S(=O)(=O)Nc2ccc3c(c2)C(=O)N([C@H](C)CO)C[C@H](C)[C@H](CN(C)S(=O)(=O)c2ccccc2)O3)cc1 | inactive | inactive | inactive |
| COc1ccc(NC(=O)N(C)C[C@H]2Oc3c(NC(=O)C4CC4)cccc3C(=O)N([C@@H](C)CO)C[C@H]2C)cc1 | inactive | inactive | inactive |
| C[C@@H]1CN([C@@H](C)CO)C(=O)c2cc(/C=C/c3ccccc3)cnc2O[C@@H]1CN(C)S(=O)(=O)c1cn(C)cn1 | inactive | inactive | inactive |
| C[C@@H]1CN([C@@H](C)CO)C(=O)c2cc(NC(=O)CCN3CCOCC3)ccc2O[C@H]1CN(C)Cc1ccc(C(=O)O)cc1 | inactive | inactive | inactive |
| CO[C@H](CN(C)S(=O)(=O)c1ccc(F)cc1)[C@@H](C)CN([C@@H](C)CO)S(=O)(=O)c1cccc(Cl)c1 | inactive | inactive | inactive |
| COc1ccc(S(=O)(=O)Nc2ccc3c(c2)CC(=O)N([C@H](C)CO)C[C@H](C)[C@@H](CN(C)Cc2ccc(C(=O)O)cc2)O3)cc1 | inactive | inactive | inactive |
| O=C(O)CN(CCN(CC(=O)O)CC(=O)O)CC(=O)O | inactive | inactive | inactive |
| CCN1[C@H](C(=O)NCCc2cn(C)cn2)[C@@H](CO)[C@@H]2Cn3c(ccc(-c4cccnc4)c3=O)[C@@H]21 | inactive | inactive | inactive |
| C[C@@H]1CN([C@@H](C)CO)C(=O)c2cc(NS(C)(=O)=O)ccc2O[C@@H](C)CCCCO[C@@H]1CN(C)Cc1ccncc1 | inactive | inactive | inactive |
| C[C@@H]1CCCCO[C@H](CN(C)Cc2ccncc2)[C@H](C)CN([C@@H](C)CO)C(=O)c2cc(NS(C)(=O)=O)ccc2O1 | inactive | inactive | inactive |
| CCOC(=O)C(CCc1ccccc1)NC1CCc2ccccc2N(CC(=O)O)C1=O.Cl (stereo not given) | inactive | inactive | inactive |
| C[C@@H]1CN([C@H](C)CO)C(=O)c2cc(NC(=O)c3ccccc3)ccc2O[C@@H](C)CCCCO[C@@H]1CN(C)CC1CCCCC1 | inactive | inactive | inactive |
| NCCCCCCNC(=O)[C@@H]1C[C@@H]2C(=O)N[C@@H](CCCCN)C(=O)N2[C@@H]1c1cccc(OCCO)c1 | inactive | inactive | inactive |
| C[C@@H]1CCCCO[C@@H](CN(C)C(=O)Nc2ccc(C(F)(F)F)cc2)[C@@H](C)CN([C@H](C)CO)C(=O)c2cc(NS(=O)(=O)c3cn(C)cn3)ccc2O1 | inactive | inactive | inactive |
| C[C@@H]1CN([C@@H](C)CO)C(=O)Cc2cc(NC(=O)Cc3ccccc3)ccc2O[C@@H]1CN(C)Cc1ccc(Oc2ccccc2)cc1 | inactive | active | inactive |
